In the supplement of paper PMC12230231:
± gives the standard deviation of the averaged measurements. Restriction of a single-cycle SIVsab GFP reporter by TRIM5α v1-loop variants in CRFK cells. Human variants: read share among cells still uninfected after two challenges over input, higher = gained restriction. Rhesus variants: share among infected cells over input, higher = lost restriction. Reporter dose not given per row. No active / inactive call per row; the paper calls a change when both replicates lie above its controls (mean + 2 SD of stop or wild-type variants, or the top frameshift score). Residues outside the varied loop are taken from Swiss-Prot. The paper reads the human single-substitution scores as noise; they and the rhesus combinations repeat poorly (rank correlation 0.3 to 0.4), indel scores repeat only for the top variants, rhesus substitutions well (0.9).

These sequences were tested on SIVsab (simian immunodeficiency virus of sabaeus monkeys), single-cycle GFP reporter, in CRFK cells (assay: enrichment among uninfected cells over input (fold); higher = stronger restriction). Conditions: library: human / rhesus combinations.
Method: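 Pools of CRFK cells expressing variants of the TRIM5α v1 loop were challenged with the single-cycle reporter, sorted by GFP and sequenced; mean of two replicates.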

Row | Sequence | enrichment
1 | MASGILVNVKEEVTCPICLELLTQPLSLDCGHSFCQACLTANHKKSMLDKGESSCPVCRISYQPENIRPNRHVANIVEKLREVKLSPEGQKVDHCARHGEKLLLFCQEDGKVICWLCERSQEHRGHHTFLTEEVAREYQVKLQAALEMLRQKQQEAEELEADIREEKASWKTQIQYDKTNVLADFEQLRDILDWEESNELQNLEKEEEDILKSLTNSETEMVQQTQSLRELISDLEHRLQGSVMELLQGVDGVIKRTENVTLKKPETFPKNQRRVFRAPDLKGMLEVFRELTDVRRYWVDVTVAPNNISCAVISEDKRQVSSPKPQIIYQAPGTRYTFPSLVNFNYCTGILGSQSITSGKHYWEVDVSKKTAWILGVCAGFQPDAMCNIEKNENYQPKYGYWVIGLEEGVKCSAFQDSSFHTPSVPFIVPLSVIICPDRVGVFLDYEACTVSFFNITNHGFLIYKFSHCSFSQPVFPYLNPRKCGVPMTLCSPSS [human TRIM5α, 330-340 = QAPGTRYTFPSLV] | 0.161 ± 0.035
2 | MASGILVNVKEEVTCPICLELLTQPLSLDCGHSFCQACLTANHKKSMLDKGESSCPVCRISYQPENIRPNRHVANIVEKLREVKLSPEGQKVDHCARHGEKLLLFCQEDGKVICWLCERSQEHRGHHTFLTEEVAREYQVKLQAALEMLRQKQQEAEELEADIREEKASWKTQIQYDKTNVLADFEQLRDILDWEESNELQNLEKEEEDILKSLTNSETEMVQQTQSLRELISDLEHRLQGSVMELLQGVDGVIKRTENVTLKKPETFPKNQRRVFRAPDLKGMLEVFRELTDVRRYWVDVTVAPNNISCAVISEDKRQVSSPKPQIIYGAPGTLFPSLVNFNYCTGILGSQSITSGKHYWEVDVSKKTAWILGVCAGFQPDAMCNIEKNENYQPKYGYWVIGLEEGVKCSAFQDSSFHTPSVPFIVPLSVIICPDRVGVFLDYEACTVSFFNITNHGFLIYKFSHCSFSQPVFPYLNPRKCGVPMTLCSPSS [human TRIM5α, 330-340 = GAPGTLFPSLV] | 0.00706 ± 0.001
3 | MASGILVNVKEEVTCPICLELLTQPLSLDCGHSFCQACLTANHKKSMLDKGESSCPVCRISYQPENIRPNRHVANIVEKLREVKLSPEGQKVDHCARHGEKLLLFCQEDGKVICWLCERSQEHRGHHTFLTEEVAREYQVKLQAALEMLRQKQQEAEELEADIREEKASWKTQIQYDKTNVLADFEQLRDILDWEESNELQNLEKEEEDILKSLTNSETEMVQQTQSLRELISDLEHRLQGSVMELLQGVDGVIKRTENVTLKKPETFPKNQRRVFRAPDLKGMLEVFRELTDVRRYWVDVTVAPNNISCAVISEDKRQVSSPKPQIIYQAPGTLYTFQSLTNFNYCTGILGSQSITSGKHYWEVDVSKKTAWILGVCAGFQPDAMCNIEKNENYQPKYGYWVIGLEEGVKCSAFQDSSFHTPSVPFIVPLSVIICPDRVGVFLDYEACTVSFFNITNHGFLIYKFSHCSFSQPVFPYLNPRKCGVPMTLCSPSS [human TRIM5α, 330-340 = QAPGTLYTFQSLT] | 0.268 ± 0.036
4 | MASGILVNVKEEVTCPICLELLTQPLSLDCGHSFCQACLTANHKKSMLDKGESSCPVCRISYQPENIRPNRHVANIVEKLREVKLSPEGQKVDHCARHGEKLLLFCQEDGKVICWLCERSQEHRGHHTFLTEEVAREYQVKLQAALEMLRQKQQEAEELEADIREEKASWKTQIQYDKTNVLADFEQLRDILDWEESNELQNLEKEEEDILKSLTNSETEMVQQTQSLRELISDLEHRLQGSVMELLQGVDGVIKRTENVTLKKPETFPKNQRRVFRAPDLKGMLEVFRELTDVRRYWVDVTVAPNNISCAVISEDKRQVSSPKPQIIYQAPGTLFTFPTFVNFNYCTGILGSQSITSGKHYWEVDVSKKTAWILGVCAGFQPDAMCNIEKNENYQPKYGYWVIGLEEGVKCSAFQDSSFHTPSVPFIVPLSVIICPDRVGVFLDYEACTVSFFNITNHGFLIYKFSHCSFSQPVFPYLNPRKCGVPMTLCSPSS [human TRIM5α, 330-340 = QAPGTLFTFPTFV] | 22.3 ± 4.5
5 | MASGILVNVKEEVTCPICLELLTQPLSLDCGHSFCQACLTANHKKSMLDKGESSCPVCRISYQPENIRPNRHVANIVEKLREVKLSPEGQKVDHCARHGEKLLLFCQEDGKVICWLCERSQEHRGHHTFLTEEVAREYQVKLQAALEMLRQKQQEAEELEADIREEKASWKTQIQYDKTNVLADFEQLRDILDWEESNELQNLEKEEEDILKSLTNSETEMVQQTQSLRELISDLEHRLQGSVMELLQGVDGVIKRTENVTLKKPETFPKNQRRVFRAPDLKGMLEVFRELTDVRRYWVDVTVAPNNISCAVISEDKRQVSSPKPQIIYQAPGTLYTFPSFTNFNYCTGILGSQSITSGKHYWEVDVSKKTAWILGVCAGFQPDAMCNIEKNENYQPKYGYWVIGLEEGVKCSAFQDSSFHTPSVPFIVPLSVIICPDRVGVFLDYEACTVSFFNITNHGFLIYKFSHCSFSQPVFPYLNPRKCGVPMTLCSPSS [human TRIM5α, 330-340 = QAPGTLYTFPSFT] | 0.0629 ± 0.025
6 | MASGILVNVKEEVTCPICLELLTQPLSLDCGHSFCQACLTANHKKSMLDKGESSCPVCRISYQPENIRPNRHVANIVEKLREVKLSPEGQKVDHCARHGEKLLLFCQEDGKVICWLCERSQEHRGHHTFLTEEVAREYQVKLQAALEMLRQKQQEAEELEADIREEKASWKTQIQYDKTNVLADFEQLRDILDWEESNELQNLEKEEEDILKSLTNSETEMVQQTQSLRELISDLEHRLQGSVMELLQGVDGVIKRTENVTLKKPETFPKNQRRVFRAPDLKGMLEVFRELTDVRRYWVDVTVAPNNISCAVISEDKRQVSSPKPQIIYGAPGTRYQSLVNFNYCTGILGSQSITSGKHYWEVDVSKKTAWILGVCAGFQPDAMCNIEKNENYQPKYGYWVIGLEEGVKCSAFQDSSFHTPSVPFIVPLSVIICPDRVGVFLDYEACTVSFFNITNHGFLIYKFSHCSFSQPVFPYLNPRKCGVPMTLCSPSS [human TRIM5α, 330-340 = GAPGTRYQSLV] | 0.597 ± 0.84
7 | MASGILVNVKEEVTCPICLELLTQPLSLDCGHSFCQACLTANHKKSMLDKGESSCPVCRISYQPENIRPNRHVANIVEKLREVKLSPEGQKVDHCARHGEKLLLFCQEDGKVICWLCERSQEHRGHHTFLTEEVAREYQVKLQAALEMLRQKQQEAEELEADIREEKASWKTQIQYDKTNVLADFEQLRDILDWEESNELQNLEKEEEDILKSLTNSETEMVQQTQSLRELISDLEHRLQGSVMELLQGVDGVIKRTENVTLKKPETFPKNQRRVFRAPDLKGMLEVFRELTDVRRYWVDVTVAPNNISCAVISEDKRQVSSPKPQIIYQARGTLYPTFVNFNYCTGILGSQSITSGKHYWEVDVSKKTAWILGVCAGFQPDAMCNIEKNENYQPKYGYWVIGLEEGVKCSAFQDSSFHTPSVPFIVPLSVIICPDRVGVFLDYEACTVSFFNITNHGFLIYKFSHCSFSQPVFPYLNPRKCGVPMTLCSPSS [human TRIM5α, 330-340 = QARGTLYPTFV] | 0.00562 ± 0.00018

Same assay, conditions: library: insertions and deletions

Row | Sequence | enrichment
8 | MASGILVNVKEEVTCPICLELLTQPLSLDCGHSFCQACLTANHKKSMLDKGESSCPVCRISYQPENIRPNRHVANIVEKLREVKLSPEGQKVDHCARHGEKLLLFCQEDGKVICWLCERSQEHRGHHTFLTEEVAREYQVKLQAALEMLRQKQQEAEELEADIREEKASWKTQIQYDKTNVLADFEQLRDILDWEESNELQNLEKEEEDILKSLTNSETEMVQQTQSLRELISDLEHRLQGSVMELLQGVDGVIKRTENVTLKKPETFPKNQRRVFRAPDLKGMLEVFRELTDVRRYWVDVTVAPNNISCAVISEDKRQVSSPKPQIIYGARGTRYQTFVNFNNFNYCTGILGSQSITSGKHYWEVDVSKKTAWILGVCAGFQPDAMCNIEKNENYQPKYGYWVIGLEEGVKCSAFQDSSFHTPSVPFIVPLSVIICPDRVGVFLDYEACTVSFFNITNHGFLIYKFSHCSFSQPVFPYLNPRKCGVPMTLCSPSS [human TRIM5α, 3-codon duplication at 341] | 0.362 ± 0.14
9 | MASGILVNVKEEVTCPICLELLTQPLSLDCGHSFCQACLTANHKKSMLDKGESSCPVCRISYQPENIRPNRHVANIVEKLREVKLSPEGQKVDHCARHGEKLLLFCQEDGKVICWLCERSQEHRGHHTFLTEEVAREYQVKLQAALEMLRQKQQEAEELEADIREEKASWKTQIQYDKTNVLADFEQLRDILDWEESNELQNLEKEEEDILKSLTNSETEMVQQTQSLRELISDLEHRLQGSVMELLQGVDGVIKRTENVTLKKPETFPKNQRRVFRAPDLKGMLEVFRELTDVRRYWVDVTVAPNNISCAVISEDKRQVSSPKPIYGARGTRYQTFVNFNYCTGILGSQSITSGKHYWEVDVSKKTAWILGVCAGFQPDAMCNIEKNENYQPKYGYWVIGLEEGVKCSAFQDSSFHTPSVPFIVPLSVIICPDRVGVFLDYEACTVSFFNITNHGFLIYKFSHCSFSQPVFPYLNPRKCGVPMTLCSPSS [human TRIM5α, 2-codon deletion at 326] | 0.406 ± 0.32
10 | MASGILVNVKEEVTCPICLELLTQPLSLDCGHSFCQACLTANHKKSMLDKGESSCPVCRISYQPENIRPNRHVANIVEKLREVKLSPEGQKVDHCARHGEKLLLFCQEDGKVICWLCERSQEHRGHHTFLTEEVAREYQVKLQAALEMLRQKQQEAEELEADIREEKASWKTQIQYDKTNVLADFEQLRDILDWEESNELQNLEKEEEDILKSLTNSETEMVQQTQSLRELISDLEHRLQGSVMELLQGVDGVIKRTENVTLKKPETFPKNQRRVFRAPDLKGMLEVFRELTDVRRYWVDVTVAPNNISCAVISEDKRQVSSPKTRYQTFVNFNYCTGILGSQSITSGKHYWEVDVSKKTAWILGVCAGFQPDAMCNIEKNENYQPKYGYWVIGLEEGVKCSAFQDSSFHTPSVPFIVPLSVIICPDRVGVFLDYEACTVSFFNITNHGFLIYKFSHCSFSQPVFPYLNPRKCGVPMTLCSPSS [human TRIM5α, 9-codon deletion at 325] | 0.641 ± 0.084
11 | MASGILVNVKEEVTCPICLELLTQPLSLDCGHSFCQACLTANHKKSMLDKGESSCPVCRISYQPENIRPNRHVANIVEKLREVKLSPEGQKVDHCARHGEKLLLFCQEDGKVICWLCERSQEHRGHHTFLTEEVAREYQVKLQAALEMLRQKQQEAEELEADIREEKASWKTQIQYDKTNVLADFEQLRDILDWEESNELQNLEKEEEDILKSLTNSETEMVQQTQSLRELISDLEHRLQGSVMELLQGVDGVIKRTENVTLKKPETFPKNQRRVFRAPDLKGMLEVFRELTDVRRYWVDVTVAPNNISCAVISEDKRQVSSPKPQIIYGARGTRYQTFVNFNYCVNFNYCTGILGSQSITSGKHYWEVDVSKKTAWILGVCAGFQPDAMCNIEKNENYQPKYGYWVIGLEEGVKCSAFQDSSFHTPSVPFIVPLSVIICPDRVGVFLDYEACTVSFFNITNHGFLIYKFSHCSFSQPVFPYLNPRKCGVPMTLCSPSS [human TRIM5α, 6-codon duplication at 340] | 0.6 ± 0.012
12 | MASGILVNVKEEVTCPICLELLTQPLSLDCGHSFCQACLTANHKKSMLDKGESSCPVCRISYQPENIRPNRHVANIVEKLREVKLSPEGQKVDHCARHGEKLLLFCQEDGKVICWLCERSQEHRGHHTFLTEEVAREYQVKLQAALEMLRQKQQEAEELEADIREEKASWKTQIQYDKTNVLADFEQLRDILDWEESNELQNLEKEEEDILKSLTNSETEMVQQTQSLRELISDLEHRLQGSVMELLQGVDGVIKRTENVTLKKPETFPKNQRRVFRAPDLKGMLEVFRELTDVRRYWVDVTVAPNNISCAVISEDKRQVSSPKPQIIYGARGTRYQTFVILGSQSITSGKHYWEVDVSKKTAWILGVCAGFQPDAMCNIEKNENYQPKYGYWVIGLEEGVKCSAFQDSSFHTPSVPFIVPLSVIICPDRVGVFLDYEACTVSFFNITNHGFLIYKFSHCSFSQPVFPYLNPRKCGVPMTLCSPSS [human TRIM5α, 7-codon deletion at 341] | 1.06 ± 0.63
